The other results are listed elsewhere or left out.
These sequences were tested on PfAP2-HC AP2 domain (GST-tagged) (assay: gcPBM binding intensity (ln(normalized median fluorescence intensity)); higher = stronger DNA binding).
Summary of the method: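 An Agilent 4 × 180k array of primer-extended double-stranded 36-bp intergenic genomic probes, with negative controls, was incubated for 1 h with GST-tagged P. falciparum DNA-binding domains expressed in E. coli. Alexa488 anti-GST antibody detected bound protein, scanned at 488 nm. Binding intensity is the highest Masliner-normalised natural-log median intensity across replicate spots of either probe orientation.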

Sequence	gcPBM binding intensity (ln)
CAAACCTATATACAAACATGCAATCCACATATTGGT [TGCATGCA_site756]	9.65
TATATTTGTATTGTTTGTACTTATATGAATTTATAT [XGTACX_site4228]	9.8
TATATTAGTGTTGACACACACAAAAAAAAAAAAAAA [CACACA_site1396]	9.78
TAAGAAAAAAAAAAAAAAAAAAAAAAAAAAAAAAAA [CACACA_negctrl_site760]	9
TAAAAATATTTTCATTGTACATATATATAAATATAT [XGTACX_site1123]	9.65
TATAAAAAAAAAAAATATATATATATATAAATATAA [TGCATGCA_negctrl_site367]	9.56
TCACCTATTTTTAACTGTACTGAAATGATATATATA [XGTACX_site1366]	9.5
TAATGAAATTGTAGTAGTACCTTCTTATAAATAAAA [XGTACX_site6747]	9.38
ATTTGTTACGGACATGCATGCGAATCAGGGTATATA [TGCATGCA_site154]	9.74
TTGAGGAAATAACAGTGTACAAACAAATTATTACCA [XGTACX_site7082]	9.82
TACATATATATATATATATATATATATATCATTATG [XGTACX_negctrl_site293]	9.95
TTTGTGATATTATATTGTACCCTATATTTATTATAA [XGTACX_site4240]	9.74
GAATGGACGTTAGGGGGTACGTATAAAATTTATCAA [XGTACX_site683]	9.83
TTTATTGACAATTTATGTACATATAATTGAAAAATA [XGTACX_site6634]	9.43
CTTATATATATATCATGTACTTATGTATTTAAGAAT [XGTACX_site3307]	9.51
ACAATAAAAATTTATGCATGTGAATTGAAAAAAAAA [TGCATGCA_site1037]	9.57
AATATATACAATATATGTACATATATATACACATAT [XGTACX_site4190]	9.87
CTTTTATTAAAATTCACACACATAAACTTTTATAAA [CACACA_site7027]	9.72
ATAAAATACCTATAAACACACATATAAACAGACATA [CACACA_site7213]	10.5
AAATAAAACAAACACACACACACATACACAAAAAAA [CACACA_site3849]	10.8
GTTATTGAAAAAATAGTGCAATATAACAAAGTAAAA	9.93
TAATTTCTTATGTATTGTACAAATAATATATGATAT [XGTACX_site611]	9.49

Sequence	gcPBM binding intensity (ln)
GGAATGTAGGGTTTTACCAAAATAAAAATAACCATA [XGTACX_negctrl_site492]	9.57
TATATATATATATGTACACACATATATACCTTTCAT [CACACA_site2679]	9.81
TATATATTTCGGTGTGCACACTTTTTATTTTTATCC [CACACA_site1726]	10.3
CACTTAACACAAGAGTGTACACATATATATATATAT [XGTACX_site686]	9.89
TTTTTCTCTTTAAGGTGTACAATAATACAGTAACCA [XGTACX_site300]	9.37
TTGTACGCAAAAAAAAAAAAAAAAAAATTAAAATTT [TGCATGCA_negctrl_site586]	9.07
ATATTAGTAACACAGACACACAAAAAAAAAAAAAAA [CACACA_site2176]	9.49
AGGAAAATACCTTAATGTACATAGAAAAGTAACATT [XGTACX_site8011]	9.65
TTTTTTATTATCAAAACATGCATTTTTTAAATGGAA [TGCATGCA_site557]	9.28
TAATGAAATATACAGAGTACATTCTGTATATAGGAT [XGTACX_site7691]	9.77
TACTCAAAAATTAATTAGCATAATATATATAAAAAT [GTGCAC_negctrl_site613]	9.29
GCATAAGAAAATAATTGTACAATTTACATACATAAA [XGTACX_site8286]	9.63
TATATATGTATATATATAAATATATATATATATATA [TGCATGCA_negctrl_site605]	9.7
TATAAATATATATACACACACACATTAATACATATA [CACACA_site3488]	10.8
TTAAGAAGTTCTAAATGTACATACATAACCACGTTA [XGTACX_site7514]	9.47
GGGAAATATTGAAACACACACGAACGCACGTATTTC [CACACA_site6258]	9.91
ATAATATTTTCTTCTTATTGAATGCTTTAAATTTAC [CACACA_negctrl_site1273]	9.56
ACAAATAAGTTTTGTAGTACTGTGTATATATATATA [XGTACX_site6901]	9.7
TTAAACCGTGGGAGCACACACACACCCCCACCCATA [CACACA_site331]	10.3
AAAGGTAAGCAGAATAGTACAGAAGAAAAAATATTT [XGTACX_site2941]	9.71
TTTTGTTTGTTCGTGACTACATTATGTTGTAAATAC [CACACA_negctrl_site604]	9.66
CAACATTTGAGACACACACACATACAAACAAACAAA [CACACA_site7538]	11.2

Sequence	gcPBM binding intensity (ln)
TATCCTATAAATAATACATGCATATATATATATATT [TGCATGCA_site638]	9.76
AAATAGTATATAATATGTACATACATAAAAATGTAT [XGTACX_site3524]	9.84
ACCTATGTATATTATACACACTCCAAACTATTATTT [CACACA_site1817]	9.96
TATAAATATTTATAAACACACAAATATATATATTTA [CACACA_site27]	9.65
GCACGCTGTATGAATGCACACATTCATAGAATTGCT [CACACA_site8852]	9.67
ATCAAAATGTTAAAGATACACACCTAACAAACACAA [CACACA_site955]	10.5
TTATATATATAGAAGTGTACAAAATTTCCTAGACCT [XGTACX_site3900]	9.72
TATCGACATTTCATTTGTACATATATACATATATTT [XGTACX_site3346]	9.81
AAGAAAATTAAATTAACACACATAAATATGTAAATA [CACACA_site6882]	10.1
CCAATAATATATAGAAGTACAGAAAAAAAAAAAAAA [XGTACX_site2049]	9.4
CCCTCTTCTCTCATATCACACATGTCATCCTTATCC [CACACA_site5078]	9.87
GAAAAATGAAGAGAACAAAATTTTATGATATATATA [GTGCAC_negctrl_site231]	9.62
TTTCATAAATAAATATGTACATAATTAATAATAAAT [XGTACX_site5882]	9.66
CCTTGAACCCCACTAACACACACACCCACGCTCAGA [CACACA_site8976]	10.2
ATTTCACAGAAACACACACACAATATATTTCCTTTT [CACACA_site3904]	10.4
ATATGTATATATATTTGTACGTAAAATGAAATCTAA [XGTACX_site213]	9.82
TATACATAGATATATACACACATATATTTATATACA [CACACA_site6328]	9.92
ATTACAAAAAAAAAAAAAAAAAAAAAAAAAAAAAAA [CACACA_negctrl_site448]	9.04
ACTTGTAAGAAACACACACACACACCGATATATATA [CACACA_site4594]	11.2
ATTATTTTTTTTCTTATACACACCATGCATCAAACT [CACACA_site2128]	9.79
AAAAATAAGAAAAAGTGTACTTTATTATGTATATAT [XGTACX_site2305]	9.67
AAAAAAAAAAAAAAAACACACATTTAATGAACTTAT [CACACA_site1276]	9.72

Sequence	gcPBM binding intensity (ln)
ATATATAATCATATGTGTACATATATATTAATTTAA [XGTACX_site2839]	9.67
AATTCAAAATAAAAATGTACATATATCAGAATATGG [XGTACX_site42]	9.66
AAGATACACTTAATCGCACACGAAATTATATATTTA [CACACA_site3063]	9.72
TTTTTTTTTTATGTTATTAAAAAAAAAAAAAATTAA [CACACA_negctrl_site222]	9.03
TATAACATTGTATGAATGCACTTTTATCTATTTTAA [GTGCAC_site9903]	9.73
ATGAGAAAATATATTATTTTATATGAACAAGTTTAT [XGTACX_negctrl_site372]	9.5
AATAATGTATGAAATAAACACACAAGTAAGTACATA [CACACA_site8776]	10.3
ATAATTTTAAATAAATGTACATATAGATGTGTGTAA [XGTACX_site3958]	9.82
AAATGTTATATATAATGTACTTGTAAGAACGTTCCT [XGTACX_site2840]	9.58
AAAATTATATATTATAGTACATAAAATATTGATAAA [XGTACX_site8988]	9.67
TGCGACCATAATAAAGCACACAATGAAAAATATATA [CACACA_site256]	9.95
TACAAATTAATATGTACACACAAATATATATATATA [CACACA_site1977]	9.81
ATAATATGAAACTAAGGTACACATATATTAACAGAG [XGTACX_site3842]	9.91
TGTGCTCAAAATTATGCACACACCTAAAATTAATTT [CACACA_site8950]	9.78
TAAGTATACTCATACACACACACACTAGAAAAAAAA [CACACA_site4397]	10.4
AGAGATACATAAAAAAGTACATATAAAATTTAGGAA [XGTACX_site7201]	9.76
TATTTATTTATATACACACACTTGTATAAAAAATGT [CACACA_site7048]	9.92
TTTTTTTTTTTTTATTGTACATGCAAAAAATTCCAC [XGTACX_site2371]	9.4
TTGGGTATTTTGTGCGCACACACATGCAAAAAGAAA [CACACA_site8299]	10.2
GTAAGTATATATAAATGTACTTATGAGGTCAAATTA [XGTACX_site3392]	9.75
ATATATATATATTGTAGTACTTATTAAATTATTTAT [XGTACX_site6235]	9.62
TCTGTATTTCCTTATGCATGCATTAGCAAGATAATA [TGCATGCA_site483]	9.62

From the supplement of paper PMC11417369
